Among all 310,000 compounds or so, about 18,000 (5.8%) were called active. Inconclusive means that the source gave no clear call. Such entries were picked first, then a sample of the others. Calls follow the shape of the dose curve; as a rule, active = well fitted inhibition curve with a large enough effect; inconclusive = small, poorly fitted or top-dose-only effect, or another doubt; inactive = no such curve, though single readings can be large or run the other way. Potencies of inconclusive entries are left out as doubtful fits.
Experiment: Primary qHTS for delayed death inhibitors of the malarial parasite plastid, 48 hour incubation
Conditions: P. falciparum luciferase growth in erythrocytes; series mostly up to 28.7 µM; activity change, negative = inhibition: at the top concentration
Procedure, shortened: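 Growth was read as firefly luciferase luminescence after a 48 h, 37 C, 5% CO2 exposure of compounds to reporter-bearing P. falciparum cultures (0.1% parasitemia, 2% hematocrit final) in Albumax-supplemented RPMI 1640.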
% is scaled to controls: 0 for no effect and ±100 for the full control effect; potency is read from the fitted curve at half-maximal effect; tags tell the direction and shape of the fitted curve.

Compound | Potency | activity change, negative = inhibition
O=C(CC1C(=O)NCCN1Cc1ccc(F)cc1)NC1CCCCCCC1 (centres undefined) | inconclusive [inhibitor, single point] | 
COc1cccc(/C=N/Nc2nc3ccccc3n3cnnc23)c1O | inconclusive [inhibitor, single point] | 
Fc1ccc(-c2csc(N3CCOCC3)n2)cc1 |  | inactive: 67.8%
Cc1cccc(NC(=O)c2nc[nH]c2C(=O)N[C@@H](C)c2ccccc2)c1 | inconclusive [inhibitor, single point] | 
COc1ccc(-c2nc3ccccc3c(=O)o2)cc1 |  | inactive: 31.7%
COCc1cc(=O)oc2cc(NC(=O)c3ccc(C(C)(C)C)cc3)ccc12 | inconclusive [inhibitor, partial curve, poor fit] | 
O=C(NCC1(c2ccccc2)CCCC1)c1ccc(Br)o1 | inconclusive [inhibitor, partial curve, poor fit] | 
O=C(NC(CC(=O)N1CCN(c2ccc([N+](=O)[O-])cc2)CC1)c1ccccc1)c1ccccc1Cl (centres undefined) | inconclusive [inhibitor, partial curve, poor fit] | 
CN(C(=O)CSc1nnc(-c2cccs2)n1C1CC1)C1CCS(=O)(=O)C1 (centres undefined) |  | inactive: 30.6%
Cc1ccc(OCC(=O)Nc2ccc(N3CCCC3)cc2)cc1C | active: 11.7 µM | 
OCCC1CN(Cc2cccc3nonc23)CCN1Cc1ccsc1 (centres undefined) |  | inactive: 9.72%
Clc1cccc(CNc2nnnn2-c2ccccc2)c1 | inconclusive [inhibitor, single point] | 
O=C(Nc1cccc(Cl)c1)c1nc[nH]c1C(=O)NCc1ccccc1 | inconclusive [inhibitor, partial curve, poor fit] | 
COCc1ccc(CN2CCCC(C(=O)Nc3ccc(-c4cccc(OC)c4)cc3)C2)o1 (centres undefined) | inconclusive [inhibitor, partial curve] | 
COc1ccc(NC(=O)C(C)N2c3cccc4cccc(c34)S2(=O)=O)cc1OC (centres undefined) | inconclusive [inhibitor, partial curve] | 
O=C(NC1CCCCC1)N1CCC(c2nc3ccccc3[nH]2)CC1 |  | inactive: -6.95%
CCCSc1nc2c(c(=O)n(C)c(=O)n2C)n1Cc1ccc(C)cc1 | inconclusive [inhibitor, single point] | 
CN(Cc1ccccc1)c1nc(-c2cccc([N+](=O)[O-])c2)nc2ccccc12 | inconclusive [inhibitor, single point] | 
COc1ccc(Sc2cc(C(F)(F)F)nc(-c3ccccn3)n2)cc1 | inconclusive [inhibitor, single point] | 
COc1ccc(S(=O)(=O)N2CCC3(CC2)OCCN3S(=O)(=O)c2ccccc2)cc1OC | inconclusive [inhibitor, partial curve, poor fit] | 
Cc1cc(C)c2nc(N(CCCN(C)C)C(=O)c3ccc(S(=O)(=O)N4CC(C)OC(C)C4)cc3)sc2c1 (centres undefined) | inconclusive [inhibitor, single point] | 
COCCCNCCOCCSc1ccc(Cl)cc1 | inconclusive [inhibitor, single point] | 

Compound | Potency | activity change, negative = inhibition
COc1ccc(/C=N/NC(=O)c2nc(-c3ccccc3)cc(-c3ccccc3)n2)cc1OC | inconclusive [inhibitor, partial curve, poor fit] | 
CCCC(=O)NC(c1cccs1)c1cc([N+](=O)[O-])c2cccnc2c1O (centres undefined) | inconclusive [inhibitor, single point] | 
CCN(CC)CCN(C(=O)c1ccc2ccccc2c1)c1nc2ccc(F)cc2s1 |  | inactive: 31%
COc1cc(-c2cc(C(=O)NCc3ccco3)c3ccccc3n2)cc(OC)c1OC | inconclusive [inhibitor, partial curve] | 
COc1cc(-c2nnc(CSc3nnc4nc(C)cc(C)n34)o2)cc(OC)c1OC | inconclusive [inhibitor, single point] | 
CCCOc1ccc(C(=O)c2ccccc2C(=O)OC2CCOC2=O)cc1OCCC (centres undefined) | inconclusive [inhibitor, single point] | 
Cc1ccc(S(=O)(=O)NCC(=O)N(CC2CCCO2)C(C(=O)NC2CCCCC2)C(C)C)cc1 (centres undefined) | inconclusive [inhibitor, partial curve, poor fit] | 
O=C(O)CCn1c(O)c(C=C2N=c3ccccc3=N2)sc1=S | inconclusive [inhibitor, partial curve, poor fit] | 
NC(=O)c1nsc(C(=O)N(c2ccccc2)C(C(=O)NC2CCCCC2)c2ccc(O)cc2)c1N (centres undefined) | inconclusive [inhibitor, partial curve, poor fit] | 
COC(=O)c1ccc2c(=O)n(Cc3ccc(C(=O)NCCCN4CCOCC4)cc3)c(=S)[nH]c2c1 | inconclusive [inhibitor, single point] | 
C/C(CCc1ccccc1)=N\NC(=O)c1ccccc1[N+](=O)[O-] |  | inactive: 11.3%
O=C(COc1ccc(Br)cc1)Nc1ccc(C(=O)Nc2ccccc2C(=O)O)cc1 |  | inactive: 0.721%
COc1ccc(OCC(=O)N2CCN(Cc3c[nH]c4ccccc34)CC2)cc1 | inconclusive [inhibitor, single point] | 
COc1ccc(NC(=O)CSc2nnc(Cn3cnc4ccccc43)o2)cc1 | inconclusive [inhibitor, single point] | 
CCC1CCCCN1CCCNC(=O)c1c(O)nc2c(C)cccn2c1=O (centres undefined) |  | inactive: 9.23%
O=C(NN1C(=O)c2ccccc2NC1c1ccoc1)c1ccc([N+](=O)[O-])cc1 (centres undefined) |  | inactive: 28.4%
Cc1ccc(C(c2c(C)[nH][nH]c2=O)c2c(C)[nH][nH]c2=O)cc1 | inconclusive [inhibitor, partial curve, poor fit] | 
Cc1cc(N/N=C/c2ccccc2)nc(N)n1 | inconclusive [inhibitor, single point] | 
CC(C)OC(=O)C1C(=O)CC(C)(O)C(C(=O)OC(C)C)C1c1cccc(O)c1 (centres undefined) |  | inactive: -3.02%
C[C@@]12CCC3[C@@](CCC4[C@@]3(C)CCC[C@@]4(C)C(=O)Nc3ccc(Cl)cc3)(CC1=O)C2 (some centres undefined) | inconclusive [inhibitor, single point] | 
Cc1ccc(C)c(N2CC(O)(c3cccs3)[N+]3=C2CCCC3)c1 (centres undefined) | active: 10.4 µM | 
CCOc1ccc2[nH]c(=O)c(CN(CCc3ccccc3)C(=O)N3CCCC3)cc2c1 | inconclusive [inhibitor, single point] | 

Compound | Potency | activity change, negative = inhibition
Cc1cc[n+](Cc2ccccc2)c(N)c1 | inconclusive [inhibitor, single point] | 
COc1ccc(/C=C/C(=O)NCc2cn(C)nc2C)cc1COc1ccc(Br)cc1 | active: 3.7 µM | 
CCn1c(SCC(=O)Nc2ccc3c(c2)OCO3)nnc1-c1cnccn1 | inconclusive [inhibitor, single point] | 
CCc1ccc2nc(N(CCCN(C)C)C(=O)c3ccc(S(=O)(=O)N(C)C4CCCCC4)cc3)sc2c1 | inconclusive [inhibitor, single point] | 
O=C(CSC1=NS(=O)(=O)c2cc(Cl)ccc2N1)NCc1ccccc1 | inconclusive [inhibitor, single point] | 
N#Cc1c(SCC(=O)Nc2ccc(Cl)cc2Cl)sc2c(O)cc(=O)[nH]c12 | active: 2.94 µM | 
CC(C)(C)C(=O)NCc1ccc(C(=O)CSc2nnc(C3CC3)n2C2CC2)s1 | inconclusive [inhibitor, single point] | 
Cc1cccc(-c2nnc3sc(-c4ccccc4C)nn23)c1 | inconclusive [inhibitor, single point] | 
CCn1c(=O)n(CC)c2cc(N3CCCC3)c(NC(=O)c3ccccc3OC)cc21 | inconclusive [inhibitor, partial curve] | 
C#CCOCCOCCOCCNc1nc(N2CCN(C(=O)CCCCCCCCCCNC(=O)[C@H](CCCCN)n3cc(C[C@@H](C)CC)nn3)CC2)nc(N2CCN(C(=O)CCCCCCCCCCNC(=O)[C@H](CCCN=C(N)N)n3cc(C[C@@H](C)CC)nn3)CC2)n1 | active: 3.29 µM | 
CCCS(=O)(=O)c1c(S(=O)(=O)CCC)c2c(C)cccn2c1C(=O)N/N=C/c1cc(O)cc(O)c1 | inconclusive [inhibitor, single point] | 
O=C1c2ccccc2C(Nc2ccc3c(c2)OCCO3)N1c1ccccn1 (centres undefined) | active: 9.28 µM | 
CCOc1ccccc1NC(=O)CSc1nc2[nH]ncc2c(=O)[nH]1 | inconclusive [inhibitor, partial curve, poor fit] | 
CCc1ccc(NC2=CC(=O)CC(c3ccco3)C2)cc1 (centres undefined) | inconclusive [inhibitor, partial curve, poor fit] | 
O=C(O)C[CH2][Ge](=[O])[O][Ge](=[O])[CH2]CC(=O)O |  | inactive: -1.53%
C=C1CCN([C@H](C(=O)NCc2ccco2)C(C)C)S(=O)(=O)c2ccccc21 |  | inactive: -5.99%
Cc1nnc2ccc(-c3ccc(NS(=O)(=O)c4ccc(Cl)s4)cc3)nn12 | inconclusive [inhibitor, single point] | 
CCOC(=O)C1CCN(C(=O)CCCn2nc(C)c3c(C)n(-c4ccc(C)cc4)nc3c2=O)CC1 | inconclusive [inhibitor, partial curve] | 
O=C(c1ccc2c(=O)n(-c3ccccc3)c(=S)[nH]c2c1)N1CCCCC1 |  | inactive: 8.81%
CC1(C)CC(=O)C2=C(C1)OC(N)=C(C#N)C2c1cccs1 (centres undefined) | inconclusive [inhibitor, single point] | 
